# Results as given in the supplement of paper PMC8728848.
# This is one part of the list.
# How the values were obtained:
# Assay in all cases: glycan array binding signal (z-score within array); higher = stronger binding
# Conditions in all cases: glycan notation: IUPAC condensed, linker removed
# [1] = molecular target: Gal3S(b1-3)[Fuc(a1-4)]GlcNAc
# How it was run: (§1)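 The Consortium for Functional Glycomics database supplied 3228 glycan arrays, of which those lacking an available protein sequence were dropped. The binding signal, a within-array Z-score, was averaged across arrays of the same protein sequence and across linkers. Negative scores can be read as non-binding.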
# Gal3S(b1-4)Glc = molecular target: Gal3S(b1-4)Glc
# How it was run: as §1
# Gal3S(b1-4)Glc6S = molecular target: Gal3S(b1-4)Glc6S
# How it was run: as §1
# Gal3S(b1-4)GlcNAc = molecular target: Gal3S(b1-4)GlcNAc
# How it was run: as §1
# Gal3S(b1-4)GlcNAc6S = molecular target: Gal3S(b1-4)GlcNAc6S
# How it was run: as §1
# [2] = molecular target: Gal3S(b1-4)[Fuc(a1-3)]Glc
# How it was run: as §1
# [3] = molecular target: Gal3S(b1-4)[Fuc(a1-3)]Glc6S
# How it was run: as §1
# Gal3S4S(b1-4)GlcNAc = molecular target: Gal3S4S(b1-4)GlcNAc
# How it was run: as §1
# Gal3S6S(b1-4)GlcNAc = molecular target: Gal3S6S(b1-4)GlcNAc
# How it was run: as §1
# Gal3S6S(b1-4)GlcNAc6S = molecular target: Gal3S6S(b1-4)GlcNAc6S
# How it was run: as §1
# Gal4S(b1-4)GlcNAc = molecular target: Gal4S(b1-4)GlcNAc
# How it was run: as §1
# Gal4S6S(b1-4)GlcNAc = molecular target: Gal4S6S(b1-4)GlcNAc
# How it was run: as §1
# Gal6S(b1-3)GlcNAc = molecular target: Gal6S(b1-3)GlcNAc
# How it was run: as §1
# Gal6S(b1-3)GlcNAc6S = molecular target: Gal6S(b1-3)GlcNAc6S
# How it was run: as §1
# Gal6S(b1-4)Glc = molecular target: Gal6S(b1-4)Glc
# How it was run: as §1
# Gal6S(b1-4)Glc6S = molecular target: Gal6S(b1-4)Glc6S
# How it was run: as §1
# Gal6S(b1-4)GlcNAc = molecular target: Gal6S(b1-4)GlcNAc
# How it was run: as §1
# Gal6S(b1-4)GlcNAc6S = molecular target: Gal6S(b1-4)GlcNAc6S
# How it was run: as §1
# GalNAc(a1-3)Gal = molecular target: GalNAc(a1-3)Gal
# How it was run: as §1
# GalNAc(a1-3)GalNAc = molecular target: GalNAc(a1-3)GalNAc
# How it was run: as §1
# [4] = molecular target: GalNAc(a1-3)GalNAc(b1-3)Gal(a1-4)Gal(b1-4)Glc
# How it was run: as §1
# [5] = molecular target: GalNAc(a1-3)GalNAc(b1-3)Gal(a1-4)Gal(b1-4)GlcNAc
# How it was run: as §1
# GalNAc(b1-3)Gal = molecular target: GalNAc(b1-3)Gal
# How it was run: as §1
# [6] = molecular target: GalNAc(b1-3)Gal(a1-4)Gal(b1-4)GlcNAc
# How it was run: as §1
# [7] = molecular target: GalNAc(b1-3)Gal(a1-4)Gal(b1-4)GlcNAc(b1-3)Gal(b1-4)Glc
# How it was run: as §1
# [8] = molecular target: GalNAc(b1-3)Gal(a1-6)Gal(b1-4)Glc
# How it was run: as §1
# GalNAc(b1-3)GalNAc = molecular target: GalNAc(b1-3)GalNAc
# How it was run: as §1
# GalNAc(b1-4)Gal(b1-4)Glc = molecular target: GalNAc(b1-4)Gal(b1-4)Glc
# How it was run: as §1
# GalNAc(b1-4)GlcNAc = molecular target: GalNAc(b1-4)GlcNAc
# How it was run: as §1
# [9] = molecular target: GalNAc(b1-4)GlcNAc(b1-2)Man(a1-3)[GalNAc(b1-4)GlcNAc(b1-2)Man(a1-6)]Man(b1-4)GlcNAc(b1-4)GlcNAc
# How it was run: as §1
# GalNAc(b1-6)GalNAc = molecular target: GalNAc(b1-6)GalNAc
# How it was run: as §1
# Glc(a1-4)Glc = molecular target: Glc(a1-4)Glc
# How it was run: as §1
# [10] = molecular target: Glc(a1-4)Glc(a1-4)Glc(a1-4)Glc
# How it was run: as §1
# Glc(a1-6)Glc(a1-6)Glc = molecular target: Glc(a1-6)Glc(a1-6)Glc
# How it was run: as §1
# [11] = molecular target: Glc(a1-6)Glc(a1-6)Glc(a1-6)Glc
# How it was run: as §1
# Glc(b1-4)Glc = molecular target: Glc(b1-4)Glc
# How it was run: as §1
# Glc(b1-6)Glc = molecular target: Glc(b1-6)Glc
# How it was run: as §1
# GlcA(b1-3)Gal = molecular target: GlcA(b1-3)Gal
# How it was run: as §1
# GlcA(b1-3)GlcNAc = molecular target: GlcA(b1-3)GlcNAc
# How it was run: as §1
# GlcA(b1-6)Gal = molecular target: GlcA(b1-6)Gal
# How it was run: as §1
# [12] = molecular target: GlcNAc(a1-3)Gal(b1-4)GlcNAc
# How it was run: as §1
# [13] = molecular target: GlcNAc(a1-4)Gal(b1-3)GlcNAc
# How it was run: as §1
# [14] = molecular target: GlcNAc(a1-4)Gal(b1-4)GalNAc
# How it was run: as §1
# [15] = molecular target: GlcNAc(a1-4)Gal(b1-4)GlcNAc
# How it was run: as §1
# [16] = molecular target: GlcNAc(a1-4)Gal(b1-4)GlcNAc(b1-3)Gal(b1-4)Glc
# How it was run: as §1
binder,measurement,setting,value
"CVN (Nostoc ellipsosporum), P81180 (protein) LGKFSQTCYNSAIQGSVLTSTCERTNGGYNTSSIDLNSVIENVDGSLKWQPSNFIETCRNTQLAGSSELAAECKTRAQQFVSTKINLDDHIANIDGTLKYE",glycan array binding signal (z-score),[1],-0.303
same,glycan array binding signal (z-score),Gal3S(b1-4)Glc,-0.296
same,glycan array binding signal (z-score),Gal3S(b1-4)Glc6S,-0.305
same,glycan array binding signal (z-score),Gal3S(b1-4)GlcNAc,-0.3
same,glycan array binding signal (z-score),Gal3S(b1-4)GlcNAc6S,-0.302
same,glycan array binding signal (z-score),[2],-0.297
same,glycan array binding signal (z-score),[3],-0.17
same,glycan array binding signal (z-score),Gal3S4S(b1-4)GlcNAc,-0.305
same,glycan array binding signal (z-score),Gal3S6S(b1-4)GlcNAc,-0.305
same,glycan array binding signal (z-score),Gal3S6S(b1-4)GlcNAc6S,-0.305
same,glycan array binding signal (z-score),Gal4S(b1-4)GlcNAc,-0.305
same,glycan array binding signal (z-score),Gal4S6S(b1-4)GlcNAc,-0.3
same,glycan array binding signal (z-score),Gal6S(b1-3)GlcNAc,-0.304
same,glycan array binding signal (z-score),Gal6S(b1-3)GlcNAc6S,-0.299
same,glycan array binding signal (z-score),Gal6S(b1-4)Glc,-0.299
same,glycan array binding signal (z-score),Gal6S(b1-4)Glc6S,-0.301
same,glycan array binding signal (z-score),Gal6S(b1-4)GlcNAc,-0.306
same,glycan array binding signal (z-score),Gal6S(b1-4)GlcNAc6S,-0.302
same,glycan array binding signal (z-score),GalNAc(a1-3)Gal,-0.308
same,glycan array binding signal (z-score),GalNAc(a1-3)GalNAc,-0.308
same,glycan array binding signal (z-score),[4],-0.296
same,glycan array binding signal (z-score),[5],-0.281
same,glycan array binding signal (z-score),GalNAc(b1-3)Gal,-0.304
same,glycan array binding signal (z-score),[6],-0.294
same,glycan array binding signal (z-score),[7],-0.303
same,glycan array binding signal (z-score),[8],-0.305
same,glycan array binding signal (z-score),GalNAc(b1-3)GalNAc,-0.306
same,glycan array binding signal (z-score),GalNAc(b1-4)Gal(b1-4)Glc,-0.305
same,glycan array binding signal (z-score),GalNAc(b1-4)GlcNAc,-0.303
same,glycan array binding signal (z-score),[9],-0.25
same,glycan array binding signal (z-score),GalNAc(b1-6)GalNAc,-0.305
same,glycan array binding signal (z-score),Glc(a1-4)Glc,-0.263
same,glycan array binding signal (z-score),[10],-0.307
same,glycan array binding signal (z-score),Glc(a1-6)Glc(a1-6)Glc,-0.307
same,glycan array binding signal (z-score),[11],-0.3
same,glycan array binding signal (z-score),Glc(b1-4)Glc,-0.305
same,glycan array binding signal (z-score),Glc(b1-6)Glc,-0.302
same,glycan array binding signal (z-score),GlcA(b1-3)Gal,-0.307
same,glycan array binding signal (z-score),GlcA(b1-3)GlcNAc,-0.306
same,glycan array binding signal (z-score),GlcA(b1-6)Gal,-0.306
same,glycan array binding signal (z-score),[12],-0.305
same,glycan array binding signal (z-score),[13],-0.021
same,glycan array binding signal (z-score),[14],-0.165
same,glycan array binding signal (z-score),[15],-0.211
same,glycan array binding signal (z-score),[16],-0.308
